These are yes or no findings as the source states them, for the method shown. In cells and extracts the contact can be indirect. Some entries that bind do so weakly or less than the wild type.

Protein sequences, listed by entry. Tags and fused reporters are not part of them.
UniProt Q8TD16: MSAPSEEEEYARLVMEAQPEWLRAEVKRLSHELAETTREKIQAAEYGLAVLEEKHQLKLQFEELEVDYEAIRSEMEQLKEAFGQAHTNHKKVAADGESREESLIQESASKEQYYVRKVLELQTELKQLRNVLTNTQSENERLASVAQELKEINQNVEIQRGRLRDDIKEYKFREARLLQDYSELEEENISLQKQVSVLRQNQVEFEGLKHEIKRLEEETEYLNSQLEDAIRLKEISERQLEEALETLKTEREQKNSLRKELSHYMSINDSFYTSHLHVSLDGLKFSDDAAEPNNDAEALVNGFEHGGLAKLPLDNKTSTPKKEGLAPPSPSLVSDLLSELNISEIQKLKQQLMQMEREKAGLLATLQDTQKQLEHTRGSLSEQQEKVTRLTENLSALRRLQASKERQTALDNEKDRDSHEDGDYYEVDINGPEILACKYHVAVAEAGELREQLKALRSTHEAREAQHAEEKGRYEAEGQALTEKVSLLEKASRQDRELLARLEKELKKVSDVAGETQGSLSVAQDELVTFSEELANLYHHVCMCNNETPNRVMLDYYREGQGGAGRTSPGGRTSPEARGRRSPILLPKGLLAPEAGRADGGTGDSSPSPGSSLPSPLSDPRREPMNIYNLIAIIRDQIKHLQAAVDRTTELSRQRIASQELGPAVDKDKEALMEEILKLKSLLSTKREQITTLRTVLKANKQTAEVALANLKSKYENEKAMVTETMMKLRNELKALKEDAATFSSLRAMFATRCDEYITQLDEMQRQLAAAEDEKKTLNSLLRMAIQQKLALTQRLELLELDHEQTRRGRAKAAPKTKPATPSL
UniProt Q6ZP65: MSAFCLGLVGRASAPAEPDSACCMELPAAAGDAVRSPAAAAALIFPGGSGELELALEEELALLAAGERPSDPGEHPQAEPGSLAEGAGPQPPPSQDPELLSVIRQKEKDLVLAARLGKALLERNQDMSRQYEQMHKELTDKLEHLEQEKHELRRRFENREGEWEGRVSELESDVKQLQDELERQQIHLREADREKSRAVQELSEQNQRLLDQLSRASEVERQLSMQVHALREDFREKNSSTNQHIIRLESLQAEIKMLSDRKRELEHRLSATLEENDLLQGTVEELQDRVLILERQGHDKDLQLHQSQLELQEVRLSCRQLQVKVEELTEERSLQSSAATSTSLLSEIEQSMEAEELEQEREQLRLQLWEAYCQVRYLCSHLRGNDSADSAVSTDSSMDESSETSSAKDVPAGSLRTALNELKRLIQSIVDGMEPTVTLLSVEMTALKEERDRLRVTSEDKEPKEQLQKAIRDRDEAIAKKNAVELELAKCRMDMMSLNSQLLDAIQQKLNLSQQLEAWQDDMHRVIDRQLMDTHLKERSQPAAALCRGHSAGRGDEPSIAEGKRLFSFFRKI

Here are results for four substances from PMC11230635.

For assay [1], the target named is BICD2 dynein cargo adaptor, endogenous (human (endogenous in HeLa)) (UniProt Q8TD16). Put plainly: co-IP.
For assay [2] the target is unchanged. Put plainly: proximity ligation.
Assay [3] deals with HPV16 L2 peptide C (amino acids 434 through 461), biotinylated (human papillomavirus type 16 (HPV16)) (UniProt P03107). Put plainly: pull-down; biotinylated peptide with whole cell extract of uninfected HeLa cells (untransfected or transfected with HA-BICD2-mCherry or HA-mCherry) in Hepes buffer; streptavidin magnetic beads; blot for BICD2, BICDR1 or the transfected protein; only the target purified.

The target in assay [4] is HPV16 L2 peptide M (amino acids 299 through 312), biotinylated (human papillomavirus type 16 (HPV16)) (UniProt P03107). The description is as above.

On to “HPV16 L2 capsid protein with a C-terminal 3x-FLAG epitope (L2F), brought into cells by the pseudovirus HPV16.L2F (from UniProt P03107 1-473)”, for which, in assay [1], the binding entry is given as “binds”. As to “HPV16.L2F pseudovirus particle (capsid proteins L1 and L2F), detected through L1 (from UniProt P03101;P03107) (complex)”, the binding entry in assay [2] is recorded as “binds”. Turning to “BICD2 dynein cargo adaptor, endogenous (from UniProt Q8TD16 1-824)”, the figures for the binding entry in assay [3] and in assay [4] were “binds” and “no binding”, respectively. For “BICDR1 dynein cargo adaptor, endogenous (from UniProt Q6ZP65 1-573)”, the binding result in assay [3] is recorded as “binds”.
